This is an account of results in the supplement of paper PMC3334620.

Whole data set: some 33,000 sequences, median “E-score (-0.5 to 0.5)” near -0.043, cut for the highest 2% near 0.37. The list shows a part of the results.

This test deals with T1, Upc2 (UniProt Q12151).
T1 sequence: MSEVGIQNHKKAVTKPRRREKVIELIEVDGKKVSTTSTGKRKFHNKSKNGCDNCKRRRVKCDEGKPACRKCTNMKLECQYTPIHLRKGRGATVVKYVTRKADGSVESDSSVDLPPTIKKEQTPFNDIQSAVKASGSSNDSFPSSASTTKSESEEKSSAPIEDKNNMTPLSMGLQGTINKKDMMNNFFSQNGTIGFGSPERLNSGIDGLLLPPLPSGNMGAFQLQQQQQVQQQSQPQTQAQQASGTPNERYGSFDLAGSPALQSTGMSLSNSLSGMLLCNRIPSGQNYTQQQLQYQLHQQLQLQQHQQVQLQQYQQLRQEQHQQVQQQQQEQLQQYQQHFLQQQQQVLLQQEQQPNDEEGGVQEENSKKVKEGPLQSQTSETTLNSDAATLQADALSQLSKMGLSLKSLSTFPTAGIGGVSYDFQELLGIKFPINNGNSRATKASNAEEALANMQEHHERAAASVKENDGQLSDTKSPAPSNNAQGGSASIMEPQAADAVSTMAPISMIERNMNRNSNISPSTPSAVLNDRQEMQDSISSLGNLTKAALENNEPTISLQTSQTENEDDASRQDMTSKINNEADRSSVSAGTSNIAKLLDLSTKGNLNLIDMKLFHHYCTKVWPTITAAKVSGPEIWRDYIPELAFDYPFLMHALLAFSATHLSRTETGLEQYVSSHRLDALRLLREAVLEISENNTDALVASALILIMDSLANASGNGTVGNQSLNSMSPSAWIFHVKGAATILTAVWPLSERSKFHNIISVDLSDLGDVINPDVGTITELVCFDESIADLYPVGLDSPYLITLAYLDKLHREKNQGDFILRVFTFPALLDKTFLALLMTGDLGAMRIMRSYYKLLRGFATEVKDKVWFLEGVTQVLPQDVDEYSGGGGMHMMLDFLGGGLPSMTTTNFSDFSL
The test can be described thus: PBM E-score (8-mer binding enrichment) (E-score (-0.5 to 0.5)); higher = stronger / more preferred TF binding; most listed sequences are background and not binding sites. Particulars: protein concentration: 200 nM; construct: GST-full length. In short, it runs like this:
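Yeast transcription factors carrying a GST tag, as full-length proteins or DNA-binding domains, were produced by PURExpress in vitro transcription/translation. About 100-200 nM protein was applied to universal all-10-mer Agilent arrays, double-stranded by primer extension on fresh or once-stripped slides. Bound protein was detected with fluorescent anti-GST, and scans were normalised with masliner. The Universal PBM Analysis Suite gave each ungapped eight-base word, pooled with its reverse complement, an E-score, a modified Wilcoxon-Mann-Whitney statistic.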
For CCCGCACC, the “PBM E-score” value is 0.00424. In the case of AGAGACAT it was -0.123. As to AGTGACGA, the “PBM E-score” value was determined as 0.0296.

As to AGAGTTTA, the “PBM E-score” value was 0.124. On to CACGTCCG, for which the “PBM E-score” value was -0.226. Consider GGGGTTAA, for which the “PBM E-score” value was -0.198. As for CGGACGGA, the “PBM E-score” value is -0.112.

On to AAAAGCGT, for which the “PBM E-score” value is -0.0219. In the case of AAGCTATC it was -0.0101; in that of ATGTACGA, 0.472; in that of CAGGAACG, 0.396.

Consider GTAATTCA, for which the “PBM E-score” value was 0.0185. Consider GCCATGAC, for which the “PBM E-score” value is -0.0401. As for CGACAGGC, the figure is -0.03.

Regarding ACGGGTAG, the “PBM E-score” value is -0.0318. Consider ACCTCCAG, for which the “PBM E-score” value was -0.152. Consider GTAACCGA, for which the “PBM E-score” value is 0.322. As for ATGAAGTG, the figure is -0.0493; as for CTGAGAGA, -0.257.

With ATCAGTGC, the “PBM E-score” value was -0.0682.

On to GGTGCGTA, for which the “PBM E-score” value turned out to be 0.187. Turning to AAAATTTG, the “PBM E-score” value was 0.0466. Consider GGAGCACA, for which the “PBM E-score” value is -0.0794.

On to AGCGCTCC, for which the “PBM E-score” value was -0.0733. For ATGGTGTA, the “PBM E-score” value is 0.104.

As to CCACAGCA, the “PBM E-score” value came to 0.0289. As for CATCTTGC, the figure is -0.0552. As for ACCGCAAT, the figure is 0.204. As for AACACGCG, the “PBM E-score” value amounted to 0.126.

Take AGCGTAAA: the “PBM E-score” value was 0.271. For CAAAAATC, the “PBM E-score” value was -0.0894. In the case of ATGCTAAA it was -0.112; in that of ATTTGCCA, -0.251.

As to AGATAACT, the “PBM E-score” value was -0.0531. In the case of GCGGATCA it was -0.243; in that of TCTCACCA, -0.14. As for CATATGCC, the figure is 0.0153; as for GAAGGTCC, 0.0645. As for GGTCAATA, the figure is -0.0257; as for ATGGTTCG, 0.187. As for CGATGGGA, the “PBM E-score” value was found to be 0.125. In the case of CCAGGGAA it was -0.162; in that of GTGTCACA, -0.117; in that of TGGGTTAA, -0.125.

Consider ACGTTACC, for which the “PBM E-score” value worked out at 0.0243. For ACACCTGG, the “PBM E-score” value is -0.225. In the case of CGTTGATA, the “PBM E-score” value was -0.00786. As for GGGCCAAA, the “PBM E-score” value amounted to 0.0302. Regarding GTTCCAGA, the “PBM E-score” value stood at 0.172. As for ATTCAATC, the figure is 0.126; as for GCAGCAGC, -0.0534. Regarding ACGTACAG, the “PBM E-score” value stood at 0.3.

On to ACGACGCG, for which the “PBM E-score” value turned out to be 0.389.

Regarding CACTGTGG, the “PBM E-score” value was -0.198. In the case of GCACATCA it was -0.0856; in that of TAGACTAA, -0.17. As for AGGAGATG, the figure is -0.152. As for AGTTCTAA, the figure is -0.0515; as for ACCACGCA, -0.214; as for CATACGCC, 0.307. In the case of AGTGACTC, the “PBM E-score” value is -0.152. As for GAGTTGGC, the figure is 0.00118; as for CCGGAAGA, -0.126; as for AGTAAGGC, -0.0311. As for AAACCATC, the figure is 0.0789. Consider AACCGACG, for which the “PBM E-score” value is 0.274. In the case of CCCCAATA, the “PBM E-score” value is -0.184. In the case of GTTCGATA, the “PBM E-score” value was determined as 0.063. As for TAAGTCGA, the figure is 0.0365; as for ATCCGGGC, -0.172. Take AATCCCCG: the “PBM E-score” value is -0.119. As for AGGCCCCC, the figure is -0.249.

Turning to CTGGATAA, the “PBM E-score” value was -0.103. As for ACTTATGA, the figure is -0.0397. In the case of GCTTTTTA, the “PBM E-score” value stood at 0.0834. As for ACGTGAGA, the “PBM E-score” value was -0.0447. In the case of AAAGGTCC it was -0.2; in that of ACCTTGGA, -0.403.

Take AGAGAGTG: the “PBM E-score” value is -0.0951.

For the sequence CTAGTGTC, the “PBM E-score” value is 0.0134. Turning to AGGACGTG, the “PBM E-score” value was -0.219. In the case of GTTCTCGA it was 0.219. In the case of AATTAATT, the “PBM E-score” value stood at 0.0772. As to GATAAATA, the “PBM E-score” value amounted to 0.0557.

Regarding GGCTAAAC, the “PBM E-score” value is 0.251. Turning to TGGTTGAA, the “PBM E-score” value is -0.322.
